Source: the RNAGym collection of RNA variant scans (doi:10.1073/pnas.2313332121)
Variants at the background level are over-represented here.

B1: TPR 5TU (parent)
chain: GGAUCUUCUCGAUCUAACAAAAAAGACAAAUCUGCCACAAAGCUUGAGAGCAUCUUCGGAUGCAGAGGCGGCAGCCUUCGGUGGCGCGAUAGCGCCAACGUUCUCAACUAUGACACGCAAAACGCGUGCUCCGUUGAAUGGAGUUUAUCAUG

Variants of: B1
Assay: polymerase ribozyme fitness, log enrichment relative to wild type (log ratio); higher = more active; in vitro selection for triplet polymerase activity
Outline: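 The heterodimeric triplet polymerase ribozyme's subunits were each mutagenized into PCR-built libraries and transcribed. Every library was selected once, in triplicate, by annealing with a biotinylated primer, the partner subunit and triplets, incubating frozen at −7 °C, gel-excising extended constructs, capturing on streptavidin beads and running RT-PCR. Input and output libraries were Illumina-sequenced, with genotypes kept only at ≥10 input reads and ≥1 read per output. Fitness, from inverse-variance-weighted replicate averages, is the base-2 logarithm of genotype enrichment over wild-type enrichment.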

Variant | polymerase ribozyme fitness (log ratio)
C14U A49G C57U G71A C99G U104A G133C A137C | ≤ -4.2
C14U A52C A73G G88C A91G C96U A106G | ≤ -4.2
C14U A52C G86U C87U A113U G141C U148G | ≤ -4.2
C14U A66C C85A G94A U145G | ≤ -4.2
C14U A66G G94A C96U C99G U144G | ≤ -4.2
C14U A91G | -3.98
C14U A91U | ≤ -4.2
C14U A107U G117A C118A A142G | ≤ -4.2
C14U A138C | -3.75
C14U A150C | ≤ -4.2
C14U C18A A20C C93A G136A A142C | -2.57
C14U C18G C57U G92U A110G | ≤ -4.2
C14U C18G G25A C85A C123U A150G | ≤ -4.2
C14U C18G U56G C57G G67C U109G | ≤ -4.2
C14U C27G U56A G68A U104A | ≤ -4.2
C14U C27G U82A C96G A138G U146G A147G | ≤ -4.2
C14U C27U U55G C93G C105G | ≤ -4.2
C14U C27U U90C A91U C116G | -3.77
C14U C32A A150C | ≤ -4.2
C14U C32A G70U G83U | ≤ -4.2
C14U C32A U56A G80C C87U U102G A142G | ≤ -4.2
C14U C32G G50A G74A C96U G128A | ≤ -4.2
C14U C32U A41C G67C G141A U146A | ≤ -4.2
C14U C35G A40G U55G U77C C87A | ≤ -4.2

Variant | polymerase ribozyme fitness (log ratio)
C14U C35U G84U C131U | -3.79
C14U C36A G46C C103A A115G | ≤ -4.2
C14U C36G A40C G68C C87G G94U C95U A106G G140C U148A | ≤ -4.2
C14U C36U G71A G83A C118G | ≤ -4.2
C14U C36U G74A A91G C95U | ≤ -4.2
C14U C36U U56A G81U C99A C116A U130G A137U | ≤ -4.2
C14U C38U C43A G62C C95A G141C | ≤ -4.2
C14U C38U C51U G74U C87G A121G G143C | ≤ -4.2
C14U C43A C54G C96A | ≤ -4.2
C14U C43G A52C U53C C87G A91U | ≤ -4.2
C14U C43U C72A G84A C93G C95G A142G U144A | ≤ -4.2
C14U C51A A52G U56A C72G | ≤ -4.2
C14U C54A C57U G58C C75A C85A A119C C132A | ≤ -4.2
C14U C54A G83U C108U G133U U135C | ≤ -4.2
C14U C54G C87G A107U | ≤ -4.2
C14U C54U | -1.87
C14U C54U C63G G80A C87A G88U C99A G136A G143A | ≤ -4.2
C14U C54U C69U C85A A110C G143A | ≤ -4.2
C14U C54U C87A A89G C96U A121U A142C | ≤ -4.2
C14U C57A | -0.738
C14U C72U C76U C96A G112U | ≤ -4.2
C14U C76A C85U | -2.67
C14U C76U C96G C131A | ≤ -4.2
C14U C79A G84A A150G | ≤ -4.2

Variant | polymerase ribozyme fitness (log ratio)
C14U C79G G84U C132U | ≤ -4.2
C14U C85A U134G A142G A150U | ≤ -4.2
C14U C85G C131U A138U U148A | ≤ -4.2
C14U C87A | ≤ -4.2
C14U C87U | -2.18
C14U C87U C99U U101G A137C U145G | ≤ -4.2
C14U C87U G88C | ≤ -4.2
C14U C87U U101C C118G | -3.29
C14U C93A A110U | ≤ -4.2
C14U C93G | ≤ -4.2
C14U C93U U127A C131A | ≤ -4.2
C14U C116G G128A C129G U135G | ≤ -4.2
C14U G25A C54U C63G A73G U90C G92C U148A | ≤ -4.2
C14U G25A G70C C72U G84A C93G C123G G140U | ≤ -4.2
C14U G25C A26C G42A A60U G84A C108U G152A | ≤ -4.2
C14U G25U A37U U55A C85A | ≤ -4.2
C14U G25U C43U G58U G83C A97C G143U | ≤ -4.2
C14U G34A U44G C57U C79A C114U G133C G140C | ≤ -4.2
C14U G34U A49C G59C C69A A91C U139A A147C | ≤ -4.2
C14U G42A C87U G136A | ≤ -4.2
C14U G42U G50C U56A C57U C75G G84U | ≤ -4.2
C14U G50A G58C A121C | -3.27
C14U G50C A97U A98U A137G | ≤ -4.2
C14U G58C G86U C105A | ≤ -4.2

Variant | polymerase ribozyme fitness (log ratio)
C14U G67A G88A G136U | ≤ -4.2
C14U G71A G84U A138C G141C | ≤ -4.2
C14U G74A C99A | ≤ -4.2
C14U G83A A120G U139A | ≤ -4.2
C14U G83C A106C | -2.96
C14U G84U A107U A147U | ≤ -4.2
C14U G94A A137U | ≤ -4.2
C14U G94C | -2.9
C14U G94C A107G G117A A142U | ≤ -4.2
C14U G143A | -1.26
C14U G152C | ≤ -4.2
C14U U15C C36A U53A A73U C95A A110U A113G C125G | ≤ -4.2
C14U U15G C38U C76U U82G C96A A106G U145G A150U | ≤ -4.2
C14U U31A G48C G67C A91U | ≤ -4.2
C14U U31A U33G U56G C76A C95A | ≤ -4.2
C14U U31C C76U G84U A142G G143U U146G | ≤ -4.2
C14U U31G U44C C69A C85G A89G A91U C132U G143C | ≤ -4.2
C14U U33A C69A U82G U135C | ≤ -4.2
C14U U45A A49C C96U C131G G141U | ≤ -4.2
C14U U45A U55G C75U U101G U102A | ≤ -4.2
C14U U45G C79G G83U C85G U102C | ≤ -4.2
C14U U53A C76A C103G C108A C118U | ≤ -4.2
C14U U53G | -3.01
C14U U55A | -1.33

Variant | polymerase ribozyme fitness (log ratio)
C14U U55A C85G C93U C96A U102A A115G | ≤ -4.2
C14U U55A G126A C132U | -1.73
C14U U56A | -1.8
C14U U56A G74A C85A C87A C125U G143C A150U G152U | ≤ -4.2
U15A A17C C32G A60G C99U C116U | ≤ -4.2
U15A A17U C57G G88U A91C U111C C129A U134G U148C | ≤ -4.2
U15A A17U G42C A60C C75G C93A U109G C118U U135C U139A | ≤ -4.2
U15A A19C C27G C36A G62C U78C C87G U104C | ≤ -4.2
U15A A20C G42C C63U G81C G86A C103U U109A A137G | ≤ -4.2
U15A A20C G59A A60U C93G C105U G133U | ≤ -4.2
U15A A20U | -0.122
U15A A21G A49G C96G | -1.26
U15A A21G C36G A60C C96A A147C | ≤ -4.2
U15A A22G G34A G62A C72U U102G | ≤ -4.2
U15A A22G G68C A89C C99A C116A U144G | ≤ -4.2
U15A A23U A24U C54A G80U C87G C105U A106G | ≤ -4.2
U15A A24C C76U G86A | ≤ -4.2
U15A A24G A73G G88A C95U C103U | ≤ -4.2
U15A A24G C36A G50A U78A G84U A106G | ≤ -4.2
U15A A28U A52G U55A C95U | ≤ -4.2
U15A A28U C43G G83A C132U U134A U145C | ≤ -4.2
U15A A28U G59U U101A | ≤ -4.2
U15A A29C A49C A52U | ≤ -4.2
U15A A29C C35A G59A C76U G143C | ≤ -4.2

Variant | polymerase ribozyme fitness (log ratio)
U15A A29C G83C A89G C103A G136A | ≤ -4.2
U15A A29G U78A G88A G126U U135G U148G | ≤ -4.2
U15A A30C G48A G59A A91U C99G A106U A107U A113U G140C G143A | ≤ -4.2
U15A A30G G58U A64C G92C C114G C123U G152A | ≤ -4.2
U15A A30U G67C C72U G92C | ≤ -4.2
U15A A40G A98G G133U | ≤ -4.2
U15A A49C A60C G83C C129G | ≤ -4.2
U15A A142C | -0.894
U15A C18U C54U C63G C93U G143C | ≤ -4.2
U15A C27G A30U G68A A89U C95G A98U | ≤ -4.2
U15A C27U A47G A52C U55A A73U G74C U90C G94A U139G | ≤ -4.2
U15A C27U C43G C51G U56A G80C C93A C118U A147U | ≤ -4.2
U15A C32U G84C C85A C118U U135A A142U G143C | ≤ -4.2
U15A C35A C54U U61G A121G | ≤ -4.2
U15A C43A G86A C87U A119U | ≤ -4.2
U15A C43U U53G C76A U102G A119G G128U U135G A142U | ≤ -4.2
U15A C54G A115G G128A | ≤ -4.2
U15A C57A C95U C114G C132A | ≤ -4.2
U15A C75G C108U | -4.16
U15A C76A G94U C125U C131U C149A G152U | ≤ -4.2
U15A C85A A91U A98C C116G G136A | ≤ -4.2
U15A G25C A29C G48C A64U C93U C95A C149A | ≤ -4.2
U15A G48A C87U A91U C93U | ≤ -4.2
U15A G48U U53A C76G C85G A97C A98G A106U | ≤ -4.2

Variant | polymerase ribozyme fitness (log ratio)
U15A G58A G86A U144G | 0.552
U15A G59A A60G C69A A121C G140A | -3.82
U15A G59A C76A U90A U145G | ≤ -4.2
U15A G67A U78G A106C A110G G141U | ≤ -4.2
U15A G70A G88C G126A G128U | ≤ -4.2
U15A G83U G84U G140U | ≤ -4.2
U15A U31A C36A G50U A66G G68A C95G | ≤ -4.2
U15A U31C A40C G48U G83C C123U A142U | ≤ -4.2
U15A U55A C57G G86C C132G | ≤ -4.2
U15A U55A C87A C132U A147C G152A | ≤ -4.2
U15C A16U C18U A49C C85G A147G A150U | ≤ -4.2
U15C A17G A37G C57U G128U | ≤ -4.2
U15C A19G C69G C76A C79G G84U C95A A110U | ≤ -4.2
U15C A21C C96G C123G A138C G140A | ≤ -4.2
U15C A21G A23C G42A A150U | ≤ -4.2
U15C A21U C32G U33A C75G C85U G94U A107G A142G | ≤ -4.2
U15C A21U C36A G67U G68A C93U G94C G128U G140U A142C | ≤ -4.2
U15C A23C A30G U44A G70A C87A G141C | ≤ -4.2
U15C A23G C27G G67A C85U | ≤ -4.2
U15C A23G U82A C93G G126A | -4.14
U15C A24C C43A C54G C57U G86U U111G | ≤ -4.2
U15C A24G C76U U145A | ≤ -4.2
U15C A24G U55A C76G C85A C123A G124C | ≤ -4.2
